Data reported in PubChem BioAssay AID1508642 (National Center for Advancing Translational Sciences (NCATS), 2021).
Hit rate of the full screen: of about 43,000 compounds, about 200 (0.47%) were called active. Not shown: some 12% with an inconclusive outcome. Calls come from the whole dose curve; as a rule, active = well fitted cell-killing curve with a large enough effect; inconclusive = small, poorly fitted or top-dose-only effect, or effect the other way; inactive = flat fitted curve, though single readings scatter. The list shows a part of the results.

Assay: Cell viability qHTS assay in S16 Pmp22-F2sN cells; note: nearly all actives have a fitted effect of over 65% in size
Conditions: S16 Pmp22-F2sN Schwann cells viability, CellTiter-Glo, 24 h; series mostly up to 57.5 µM; activity change, negative = cytotoxicity: at the top concentration
In short: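 Used to flag compounds lowering reporter output through toxicity, this quantitative HTS measures ATP-based CellTiter-Glo luminescence in S16 Pmp22-F2sN Schwann cells after 24 h compound exposure at 37C.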
% is set by controls: 0 for no effect and ±100 for the full control effect.

| Structure (SMILES) | activity change, negative = cytotoxicity |
| --- | --- |
| COc1ccc(-c2nc3nc(C)cc(N4CCN(c5cccc(C(F)(F)F)c5)CC4)n3n2)cc1 | inactive: 21.7% |
| COCCCNC(=O)c1ccc(Cn2c(=O)c3ccccc3n(CC(=O)Nc3ccc(C)cc3C)c2=O)cc1 | inactive: 3.31% |
| CCOC(=O)N1CCc2c(sc3c2c(=O)n(-c2ccc(Cl)cc2)c(=O)n3Cc2cccc(OC)c2)C1 | inactive: -0.712% |
| Cc1cccc(N2CC(c3nc4ccccc4n3CCC3CCCCC3)CC2=O)c1 (stereo unspecified) | inactive: 0.1% |
| Cc1cccc2c1-c1sc(C(=O)NCc3ccc(Cl)cc3)cc1CO2 | inactive: -0.135% |
| CCN(Cc1ccccc1)C(=O)c1cc2c(=O)oc3ccc(C)cc3c2s1 | inactive: -4.56% |
| CCc1ccc(S(=O)(=O)c2nnn3c2nc(Nc2cc(OC)cc(OC)c2)c2cc(Cl)ccc23)cc1 | inactive: -1.12% |
| Cc1cc(C)cc(NC(=O)Cn2nnc(C(=O)NCc3ccccc3Cl)c2N)c1 | inactive: -15% |
| CCOc1ccc(C(=O)Nc2ccccc2C(=O)OCc2cc(=O)n3nc(C4CC4)sc3n2)cc1 | inactive: 26.2% |
| COc1ccc(CCNC(=O)c2cc3c(s2)-c2c(C)cccc2OC3)c(OC)c1 | inactive: 10.2% |
| Cc1cccc(NC(=O)CSc2nc(=O)n(Cc3ccco3)c3c2CCC3)c1C | inactive: 0.679% |
| CCOc1ccc(NC(=O)[C@H]2O[C@@H]3OC(C)(C)O[C@@H]3[C@H]3OC(C)(C)O[C@H]32)cc1 | inactive: 3.23% |
| CCOc1ccccc1CNC(=O)c1cn(-c2ccc(OC)cc2)c(=O)c2ccccc12 | inactive: -17.7% |
| COc1cccc(CNC(=O)CSc2n[nH]c(-c3ccccc3Cl)n2)c1OC | inactive: 4.27% |
| CCOc1ccc(CN(C(=O)c2nc(SC)ncc2Cl)C2CCS(=O)(=O)C2)cc1 (stereo unspecified) | inactive: 8.85% |
| O=C(Nc1nc2ccc(S(=O)(=O)N3CCCC3)cc2s1)c1ccc(F)cc1 | inactive: -1.38% |
| CCc1ccc(Oc2c(C(F)(F)F)oc3c(CN4CCN(CC)CC4)c(O)ccc3c2=O)cc1 | inactive: -0.485% |
| O=c1c(N2CCN(c3cccc(Cl)c3)CC2)csc2ccccc12 | inactive: 0.0582% |
| Cc1cc(C)cc(NC(=O)C(=O)NCCCN2CCOCC2)c1 | inactive: 17% |
| Cc1ccc2cc3cc(C(=O)N4CCN(c5ccccc5)CC4)oc3nc2c1 | inactive: -8.61% |
| CCc1nn(CC(=O)NCc2ccccc2Cl)c(=O)c2cc3ccccc3n12 | inactive: 0.344% |
| COc1ccc(OCC(=O)Nc2ccc3c(c2)nc(CCNC(=O)c2ccco2)n3C)cc1 | inactive: -0.47% |
| O=C(Nc1ccc(Br)cc1)c1ccc(F)c(S(=O)(=O)N2CCCc3ccccc32)c1 | inactive: -5.73% |
| CC(C)Cn1c(=O)c2sccc2n2c(CCCC(=O)NCCc3ccc(Cl)cc3)nnc12 | inactive: -7.52% |
| CCOC(=O)c1ccc(CN(Cc2ccc(Cl)cc2Cl)S(=O)(=O)c2ccc(F)c(C)c2)cc1 | inactive: 8.98% |
| CCc1ccc2nc(N(Cc3cccnc3)C(C)=O)sc2c1 | inactive: -2.16% |
